# Laboratory results: the supplement of paper PMC8728848
# Shown is part of a subset that was picked to be rich in the strongest signals.
# How the values were obtained:
# Test in all cases: glycan array binding signal (z-score within array); higher = stronger binding
# Details in all cases: glycan notation: IUPAC condensed, linker removed
# [1] = test system: Gal3S(b1-4)Glc6S
# Method in brief: (§1)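 The binding signal is a Z-score computed within each array and averaged over linkers. Arrays of the same protein sequence at different concentrations or buffers were also averaged together. Data originate from 3228 arrays in the Consortium for Functional Glycomics database, kept only where the protein sequence was available.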
# [2] = test system: Gal6S(b1-3)GlcNAc
# Method in brief: as §1
# [3] = test system: Gal6S(b1-4)GlcNAc
# Method in brief: as §1
# [4] = test system: Gal3S6S(b1-4)GlcNAc
# Method in brief: as §1
# [5] = test system: Gal6S(b1-4)GlcNAc6S
# Method in brief: as §1
# [6] = test system: Gal3S(b1-4)Glc
# Method in brief: as §1
# [7] = test system: Gal3S6S(b1-4)GlcNAc6S
# Method in brief: as §1
# [8] = test system: Gal4S6S(b1-4)GlcNAc
# Method in brief: as §1
# [9] = test system: Gal3S(b1-4)GlcNAc6S
# Method in brief: as §1
# [10] = test system: Gal4S(b1-4)GlcNAc
# Method in brief: as §1
# [11] = test system: Gal6S(b1-4)Glc
# Method in brief: as §1
# [12] = test system: Gal6S(b1-4)Glc6S
# Method in brief: as §1
# [13] = test system: Gal3S(b1-4)[Fuc(a1-3)]Glc6S
# Method in brief: as §1
# [14] = test system: Gal3S(b1-4)[Fuc(a1-3)]GlcNAc
# Method in brief: as §1
# [15] = test system: Gal3S4S(b1-4)GlcNAc
# Method in brief: as §1
# [16] = test system: GalNAc(a1-3)GalNAc(b1-3)Gal(a1-4)Gal(b1-4)GlcNAc
# Method in brief: as §1
# [17] = test system: Gal3S(b1-4)GlcNAc
# Method in brief: as §1
# [18] = test system: Gal6S(b1-3)GlcNAc6S
# Method in brief: as §1
# [19] = test system: Gal3S(b1-4)[Fuc(a1-3)]Glc
# Method in brief: as §1
# [20] = test system: GalNAc(a1-3)GalNAc
# Method in brief: as §1
substance,measurement,setting,value
Gal 3 (Homo sapiens) (chain not printed),glycan array binding signal (z-score),[1],0.1
same,glycan array binding signal (z-score),[2],-0.071
same,glycan array binding signal (z-score),[3],-0.122
NCAM1 (Homo sapiens) (chain not printed),glycan array binding signal (z-score),[4],-0.194
same,glycan array binding signal (z-score),[5],1.63
Serum Amyloid P component (Homo sapiens) (chain not printed),glycan array binding signal (z-score),[6],0.118
same,glycan array binding signal (z-score),[7],1.45
same,glycan array binding signal (z-score),[8],1.24
same,glycan array binding signal (z-score),[3],0.245
Galectin-8 C-terminal CRD (Homo sapiens) (chain not printed),glycan array binding signal (z-score),[1],5.8
same,glycan array binding signal (z-score),[9],0.562
same,glycan array binding signal (z-score),[6],0.714
same,glycan array binding signal (z-score),[10],-0.232
M-Ficolin (Homo sapiens) (chain not printed),glycan array binding signal (z-score),[4],-0.143
same,glycan array binding signal (z-score),[11],-0.149
CLEC-2 (Homo sapiens) (chain not printed),glycan array binding signal (z-score),[7],5.83
same,glycan array binding signal (z-score),[12],1.56
Gal 8-short (Homo sapiens) (chain not printed),glycan array binding signal (z-score),[4],-0.646
same,glycan array binding signal (z-score),[8],-0.505
FGF2 (chain not printed),glycan array binding signal (z-score),[13],1.88
same,glycan array binding signal (z-score),[14],-0.77
same,glycan array binding signal (z-score),[15],6.35
same,glycan array binding signal (z-score),[7],3.54
same,glycan array binding signal (z-score),[2],0.046
same,glycan array binding signal (z-score),[16],-0.347
H-Ficolin (Homo sapiens) (chain not printed),glycan array binding signal (z-score),[9],0.307
M-Ficolin A256V (Homo sapiens) (chain not printed),glycan array binding signal (z-score),[10],-0.163
same,glycan array binding signal (z-score),[8],-0.124
Meso764 (Homo sapiens) (chain not printed),glycan array binding signal (z-score),[10],0.093
same,glycan array binding signal (z-score),[5],0.456
STIM-3 (Mus musculus) (chain not printed),glycan array binding signal (z-score),[17],-0.193
Collectin K1 (Homo sapiens) (chain not printed),glycan array binding signal (z-score),[15],-0.198
M-Ficolin G221F (Homo sapiens) (chain not printed),glycan array binding signal (z-score),[10],-0.157
MBP (Homo sapiens) (chain not printed),glycan array binding signal (z-score),[15],-0.13
same,glycan array binding signal (z-score),[18],-0.405
M-Ficolin Y271F (Homo sapiens) (chain not printed),glycan array binding signal (z-score),[1],0.33
same,glycan array binding signal (z-score),[11],0.18
Gal 8 long (Homo sapiens) (chain not printed),glycan array binding signal (z-score),[1],3.92
Siglec-2 (Homo sapiens) (chain not printed),glycan array binding signal (z-score),[19],-0.071
same,glycan array binding signal (z-score),[10],-0.218
VWF (Homo sapiens) (chain not printed),glycan array binding signal (z-score),[20],6.14
L-Ficolin (Homo sapiens) (chain not printed),glycan array binding signal (z-score),[6],-0.183
same,glycan array binding signal (z-score),[7],3.53
